# This is one part of the list.
# B1: PhoQ; a variant is named by its letters at X, in order, P23837 (parent)
# chain: MKKLLRLFFPLSLRVRFLLATAAVVLVLSLAYGMVALIGYSVSFDKTTFRLLRGESNLFYTLAKWENNKLHVELPENIDKQSPTMTLIYDENGQLLWAQRDVPWLMKMIQPDWLKSNGFHEIEADVNDTSLLLSGDHSIQQQLQEVREDDDDAEMTHSVAVNVYPATSRMPKLTIVVVDTIPVELKSSYMVWSWFIYVLSANLLLVIPLLWVAAWWSLRPIEALAKEVRELEEHNRELLNPATTRELTSLVRNLNRLLKSERERYDKYRTTLTDLTHSLKTPLXXLQXXLRSLRSEKMSVSDAEPVMLEQISRISQQIGYYLHRASMRGGTLLSRELHPVAPLLDNLTSALNKVYQRKGVNISLDISPEISFVGEQNDFVEVMGNVLDNACKYCLEFVEISARQTDEHLYIVVEDDGPGIPLSKREVIFDRGQRVDTLRPGQGVGLAVAREITEQYEGKIVAGESMLGGARMEVIFGRQHSAPKDE
# Variants of: B1
# Experiment: enrichment ratio after two sorts for PhoP signalling (ratio (wild type AVST 3.29)); higher = more functional
# Conditions: with PhoP (E. coli)
row,Variant,enrichment ratio
1,MLCR,≤ 0.25
2,VKAD,≤ 0.25
3,CFFH,≤ 0.25
4,FRFK,≤ 0.25
5,HLRI,≤ 0.25
6,STWY,≤ 0.25
7,AYYR,≤ 0.25
8,MLAL,7.89
9,PHFF,≤ 0.25
10,TASF,8.94
11,WIKH,≤ 0.25
12,RWYC,≤ 0.25
13,TPVK,≤ 0.25
14,HLSG,≤ 0.25
15,DSKW,≤ 0.25
16,MCCR,≤ 0.25
17,TMCC,10.7
18,WFMH,≤ 0.25
19,MQEN,≤ 0.25
20,NYDF,≤ 0.25
21,SYYE,≤ 0.25
22,WSSW,≤ 0.25
23,QPNC,≤ 0.25
24,DIHN,≤ 0.25

row,Variant,enrichment ratio
1,PAKH,≤ 0.25
2,WGTE,≤ 0.25
3,QWSR,≤ 0.25
4,QDHY,≤ 0.25
5,MSVF,0.464
6,LTEY,≤ 0.25
7,PQQE,≤ 0.25
8,IKLL,≤ 0.25
9,KYEA,≤ 0.25
10,NRRQ,≤ 0.25
11,MQYF,≤ 0.25
12,PGCY,≤ 0.25
13,GDQY,≤ 0.25
14,EMCL,≤ 0.25
15,KSMR,≤ 0.25
16,QLLP,≤ 0.25
17,SLPF,≤ 0.25
18,KSKS,≤ 0.25
19,RSDG,≤ 0.25
20,QRMK,≤ 0.25
21,LVAD,≤ 0.25
22,FCET,≤ 0.25
23,ITQF,≤ 0.25
24,ASTT,6.42

row,Variant,enrichment ratio
1,TAWT,6.5
2,NLKT,≤ 0.25
3,QQPC,≤ 0.25
4,YQIP,≤ 0.25
5,NFDG,≤ 0.25
6,TLGQ,7.94
7,QPII,≤ 0.25
8,IFTA,≤ 0.25
9,TIAT,10.2
10,KRIH,≤ 0.25
11,YHEE,≤ 0.25
12,LVHP,≤ 0.25
13,VKNS,≤ 0.25
14,HGCK,≤ 0.25
15,GAMF,≤ 0.25
16,PIWN,≤ 0.25
17,MCFP,≤ 0.25
18,QFYQ,≤ 0.25
19,IMLI,≤ 0.25
20,IEPI,≤ 0.25
21,IYTQ,≤ 0.25
22,STAE,9.48
23,ASRR,≤ 0.25
24,DYMM,≤ 0.25

row,Variant,enrichment ratio
1,WKHY,≤ 0.25
2,MPKR,≤ 0.25
3,REVP,≤ 0.25
4,GYTC,≤ 0.25
5,LSSY,≤ 0.25
6,PIMD,≤ 0.25
7,LPGH,≤ 0.25
8,YDET,≤ 0.25
9,QSMI,7.54
10,DWWN,≤ 0.25
11,MWHP,≤ 0.25
12,SDNC,≤ 0.25
13,MLCI,7.47
14,IYYF,≤ 0.25
15,DCAV,≤ 0.25
16,LFHC,≤ 0.25
17,KQQI,≤ 0.25
18,QMHF,13.5
19,GAVN,≤ 0.25
20,TLAN,12.5
21,GSRV,≤ 0.25
22,SRLI,6.88
23,IIWF,≤ 0.25
24,VGCE,≤ 0.25

row,Variant,enrichment ratio
1,FILF,7.23
2,WDTP,≤ 0.25
3,KAQA,≤ 0.25
4,CARG,≤ 0.25
5,NQDP,≤ 0.25
6,EHNG,≤ 0.25
7,YTGW,≤ 0.25
8,GVSN,5.89
9,TTST,10.3
10,KVKH,≤ 0.25
11,VTMA,≤ 0.25
12,TCAW,1.27
13,LYPI,≤ 0.25
14,PAPW,≤ 0.25
15,SITN,4.88
16,VDVS,≤ 0.25
17,LETM,≤ 0.25
18,CFPS,≤ 0.25
19,KCIH,≤ 0.25
20,PLKD,≤ 0.25
21,MNAH,10.2
22,DPHL,≤ 0.25
23,TWLK,≤ 0.25
24,FAMC,0.442

row,Variant,enrichment ratio
1,TWCW,≤ 0.25
2,TKEG,≤ 0.25
3,SKHL,≤ 0.25
4,IAYH,≤ 0.25
5,ELSH,1.14
6,KTRN,≤ 0.25
7,VGLR,≤ 0.25
8,GVIW,≤ 0.25
9,HYDM,≤ 0.25
10,NFTS,≤ 0.25
11,EIVM,≤ 0.25
12,PRAP,≤ 0.25
13,HLKK,≤ 0.25
14,DDYA,≤ 0.25
15,VQAR,≤ 0.25
16,FYKG,≤ 0.25
17,AKHR,≤ 0.25
18,QSLK,≤ 0.25
19,RLMR,≤ 0.25
20,NPMF,≤ 0.25
21,APVW,≤ 0.25
22,TGDY,≤ 0.25
23,GHLW,≤ 0.25
24,IGKF,≤ 0.25

row,Variant,enrichment ratio
1,SPID,≤ 0.25
2,EHCI,≤ 0.25
3,DGNV,≤ 0.25
4,HMYQ,≤ 0.25
5,AGTI,16.7
6,MSEC,≤ 0.25
7,GMEG,≤ 0.25
8,VWGS,≤ 0.25
9,MVMQ,≤ 0.25
10,LWSG,≤ 0.25
11,TWFN,≤ 0.25
12,QRGN,≤ 0.25
13,DWHG,≤ 0.25
14,KTWW,≤ 0.25
15,VWPH,≤ 0.25
16,TVSP,≤ 0.25
17,GDFI,≤ 0.25
18,GGCW,≤ 0.25
19,GSQW,≤ 0.25
20,QSEY,≤ 0.25
21,PCET,≤ 0.25
22,AWGV,≤ 0.25
23,PDWH,≤ 0.25
24,NNHY,≤ 0.25

row,Variant,enrichment ratio
1,GQAD,≤ 0.25
2,QAPI,≤ 0.25
3,KNFV,≤ 0.25
4,KRGC,≤ 0.25
5,LRDC,≤ 0.25
6,TYCS,0.648
7,TPSK,≤ 0.25
8,RFGT,≤ 0.25
9,DMCT,≤ 0.25
10,QQEY,≤ 0.25
11,TYCQ,0.376
12,NPGM,≤ 0.25
13,INHN,≤ 0.25
14,RLAR,≤ 0.25
15,VGTM,≤ 0.25
16,GFMR,≤ 0.25
17,RILC,≤ 0.25
18,FVPC,≤ 0.25
19,TLHG,≤ 0.25
20,HAVQ,≤ 0.25
21,NMAV,≤ 0.25
22,QKVT,≤ 0.25
23,DSFY,≤ 0.25
24,LYHT,≤ 0.25

row,Variant,enrichment ratio
1,STHE,≤ 0.25
2,TLMY,≤ 0.25
3,MKSH,≤ 0.25
4,LCME,≤ 0.25
5,KGFN,≤ 0.25
6,VFQF,≤ 0.25
7,GAYL,≤ 0.25
8,SYWM,≤ 0.25
9,KNIL,≤ 0.25
10,DKNW,≤ 0.25
11,LHPG,≤ 0.25
12,KSDA,≤ 0.25
13,ATDF,≤ 0.25
14,LQYC,≤ 0.25
15,RCYS,≤ 0.25
16,HKAH,≤ 0.25
17,IAWM,≤ 0.25
18,ELRN,≤ 0.25
19,LVGC,≤ 0.25
20,VTKL,≤ 0.25
21,NVMA,≤ 0.25
22,DVNL,≤ 0.25
23,YSWR,≤ 0.25
24,PANT,≤ 0.25

row,Variant,enrichment ratio
1,TMVI,≤ 0.25
2,FHQW,≤ 0.25
3,GRMW,≤ 0.25
4,VMAS,≤ 0.25
5,KQAP,≤ 0.25
6,MPET,≤ 0.25
7,EESL,≤ 0.25
8,AKWQ,≤ 0.25
9,QISA,1.69
10,TEEI,4.63
11,VAKL,≤ 0.25
12,LPTK,≤ 0.25
13,LVLF,≤ 0.25
14,MGNI,≤ 0.25
15,DYFR,≤ 0.25
16,VPFL,0.292
17,CCPP,≤ 0.25
18,PNDH,≤ 0.25
19,HGVL,0.811
20,ITGC,≤ 0.25
21,TIML,2.74
22,SYHE,≤ 0.25
23,PARI,≤ 0.25
24,PHVI,≤ 0.25

row,Variant,enrichment ratio
1,YHHI,≤ 0.25
2,PYMD,≤ 0.25
3,GSNT,≤ 0.25
4,VNKS,0.263
5,LAIV,≤ 0.25
6,MFPC,≤ 0.25
7,MPEF,≤ 0.25
8,KEQR,≤ 0.25
9,GASK,≤ 0.25
10,SIHF,≤ 0.25
11,VDLF,≤ 0.25
12,WSQH,≤ 0.25
13,IQLW,≤ 0.25
14,EWST,≤ 0.25
15,MVGI,≤ 0.25
16,AMAD,≤ 0.25
17,PSWL,≤ 0.25
18,VHLI,≤ 0.25
19,RHLK,≤ 0.25
20,DNCD,≤ 0.25
21,QTTN,≤ 0.25
22,ITNF,≤ 0.25
23,VGRL,≤ 0.25
24,FMWA,≤ 0.25

row,Variant,enrichment ratio
1,RIWW,≤ 0.25
2,MYCS,≤ 0.25
3,NLLM,≤ 0.25
4,DNPS,≤ 0.25
5,EKQF,≤ 0.25
6,VSMR,≤ 0.25
7,WIYD,≤ 0.25
8,LERH,≤ 0.25
9,FPIA,≤ 0.25
10,RGNQ,≤ 0.25
11,DTRF,≤ 0.25
12,AGTS,7.67
13,KFVA,≤ 0.25
14,YWKL,≤ 0.25
15,TFHY,≤ 0.25
16,LEYE,≤ 0.25
17,PNIW,≤ 0.25
18,FGYQ,≤ 0.25
19,RLKH,≤ 0.25
20,WTWC,≤ 0.25
21,KMSY,≤ 0.25
22,NQCE,≤ 0.25
23,FTKD,≤ 0.25
24,SICL,11.3

row,Variant,enrichment ratio
1,DHLH,≤ 0.25
2,RFDF,≤ 0.25
3,QNSW,≤ 0.25
4,NDPM,≤ 0.25
5,DHLR,≤ 0.25
6,VLWC,≤ 0.25
7,AKKD,≤ 0.25
8,VKCI,≤ 0.25
9,ASRL,≤ 0.25
10,DARQ,≤ 0.25
11,HREG,≤ 0.25
12,CNLL,0.444
13,ITVF,≤ 0.25
14,RIMK,≤ 0.25
15,MYSC,≤ 0.25
16,LHVH,≤ 0.25
17,NRAP,≤ 0.25
18,NNKG,≤ 0.25
